Assay results as given in the supplement of paper PMC3334620.
The full ranking holds about 33,000 sequences; the median of “E-score (-0.5 to 0.5)” is about -0.01, and the highest 2% start at about 0.26. Some of the results follow.

biological target: Ste12 (UniProt P13574); assay: PBM E-score (8-mer binding enrichment) (E-score (-0.5 to 0.5)); higher = stronger / more preferred TF binding; most listed sequences are background and not binding sites; conditions: protein concentration: 200 nM; construct: GST-DNA-binding domain
Method in brief: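 PURExpress in vitro transcription/translation supplied GST-tagged yeast transcription factors, either full-length or DNA-binding domain. Applied at about 100-200 nM to universal all-10-mer Agilent arrays double-stranded by primer extension, the bound protein was detected with fluorescent anti-GST. E-scores, modified Wilcoxon-Mann-Whitney statistics, were given by the Universal PBM Analysis Suite to ungapped eight-base words pooled with their reverse complements after masliner normalisation.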

| Sequence | PBM E-score |
| --- | --- |
| AGTTGGAC | 0.0245 |
| CTCCTTGA | -0.126 |
| CCGTTAAC | -0.0496 |
| GGGCCGCA | 0.0486 |
| AGTCCCAG | -0.155 |
| AAAAAATT | 0.197 |
| CTAAGCCA | -0.178 |
| CTGAGTAA | 0.0681 |
| ATAATAAC | 0.252 |
| ACTCCACG | -0.0982 |
| ATACCCTG | -0.058 |
| AGAATAAG | 0.107 |
| GCCATCTA | -0.102 |
| CCTGTAGA | 0.0485 |
| AGATCAAA | 0.156 |
| AACGCGCA | -0.051 |
| ACTGCTGA | -0.19 |
| ACAAACCA | 0.00217 |
| AAATGAAG | 0.257 |
| CAACCGGC | -0.029 |
| ATTAGCTA | 0.0459 |
| ATTCGCCC | -0.0527 |
| ATAGCGCC | 0.0012 |
| CAAGCAGA | -0.0198 |
| ATGTGTAC | 0.0108 |

| Sequence | PBM E-score |
| --- | --- |
| ATGAGCTG | -0.173 |
| AGCACTAC | -0.147 |
| ACCCTGCG | -0.0349 |
| AAGTGCCT | -0.225 |
| CCAGATAA | -0.0254 |
| GGCATTTA | 0.0171 |
| AACCTAAC | 0.00454 |
| AAGGTGGG | 0.0638 |
| TGCCCAAA | -0.112 |
| CCTGGTGC | 0.0112 |
| ACGCGTGG | 0.0466 |
| CCAGACGC | -0.122 |
| CAACTAAC | 0.121 |
| CCTATGGA | -0.203 |
| GCGGAGGA | -0.0523 |
| AAACGGAA | 0.25 |
| AAACGTCT | 0.195 |
| CGTTGTCA | -0.101 |
| AAGTGGAT | 0.0636 |
| CTCCCGGC | 0.039 |
| ATGCTCGG | -0.0706 |
| TTAGTCAA | 0.1 |
| AGGTCAGA | -0.113 |
| AGGTCATG | -0.00176 |
| GTATCTGA | -0.0612 |

| Sequence | PBM E-score |
| --- | --- |
| GATCTGTA | 0.0646 |
| CGGGTGGC | -0.178 |
| CCGTGACA | 0.11 |
| AGGCTTTG | -0.133 |
| ATACTTGC | 0.0926 |
| GCGAGTAC | -0.0768 |
| CCTCTAGA | -0.134 |
| CTCTGCTC | -0.0678 |
| AGCTTAAT | 0.0828 |
| AGTCAGCA | -0.232 |
| ACAGGGGA | -0.00105 |
| CCTTGTCC | -0.00908 |
| TACGTGGA | -0.205 |
| CGTTGAAG | -0.00035 |
| CGATCTGC | -0.056 |
| GCGAGGTA | -0.0337 |
| GTCGATGA | 0.0214 |
| GACTGGGC | -0.165 |
| GAATACTC | -0.041 |
| ATACGAGA | -0.187 |
| ACGTGGGG | -0.113 |
| CAACTGTC | -0.22 |
| ATACTTCC | 0.0476 |
| CCGAGGCC | -0.0822 |
| AATGCGGT | -0.0129 |

| Sequence | PBM E-score |
| --- | --- |
| CCTCCAGA | 0.0572 |
| AGGCAGAT | 0.0799 |
| AGGTTCCA | -0.0812 |
| ACTCGGGG | -0.0945 |
| GGACTGTA | -0.226 |
| ACATCGCT | -0.099 |
| CGGCAAAC | 0.134 |
| GCTCAGGA | -0.0895 |
| AAAGTGTT | 0.067 |
| ACGAAGTA | -0.151 |
| CGTTTTAG | 0.215 |
| GGACCACA | 0.145 |
| ATACACCC | 0.0615 |
| CAAGTGAA | -0.0187 |
| TGAACGAA | -0.0515 |
| AATATGTA | 0.101 |
| AGGTTCGC | -0.12 |
| ACGACAGG | -0.022 |
| ACTCACCC | -0.0964 |
| ACTCCGCC | 0.0712 |
| TAGAACGA | -0.0295 |
| CAACGGCG | -0.00445 |
| AGTGTTGC | -0.00999 |
| AAGAGAAG | -0.119 |
| AGCGTTGC | -0.169 |

| Sequence | PBM E-score |
| --- | --- |
| TAATCGCA | 0.0803 |
| AGTCAGAG | -0.0659 |
| TAAATGCA | 0.0858 |
| GGAGTCCA | -0.128 |
| TAATTAAA | 0.173 |
| ATCATTGG | 0.011 |
| CATCCCTC | 0.115 |
| AGCCTACG | -0.0441 |
| CATTGGAC | -0.136 |
| CGTAAATC | 0.0698 |
| CGAGGTTA | 0.0183 |
| CCTTTTTA | 0.051 |
| TGAGGCCA | -0.00569 |
| ACTGTGCA | -0.11 |
| ATTAAGCA | 0.171 |
| CAGTGCTC | -0.0905 |
| AAAACCTC | 0.207 |
| CGCCCTGC | 0.0411 |
| GAGGGAGA | -0.134 |
| TAACATGA | 0.098 |
| TCGGTGAA | 0.0553 |
| AAGCTTAC | -0.066 |
| CGCAACCG | -0.135 |
| GATTTAGA | 0.173 |
| GCGAGTTA | 0.0798 |

| Sequence | PBM E-score |
| --- | --- |
| CAGCTTCG | -0.167 |
| GACTTCGA | -0.139 |
| ATAGTAAG | 0.0906 |
| CACGTACA | 0.0883 |
| AGTCCGCC | -0.0179 |
| CGGGGTGA | 0.198 |
| AGCGAGGC | -0.16 |
| ATAGGATG | 0.149 |
| AATCTATA | 0.186 |
| AAGCGTAC | -0.237 |
| AAACTTTA | 0.294 |
| AGCCGGAT | -0.0521 |
| CACAACAA | 0.0346 |
| AATCTGGT | 0.0602 |
| CGTACTAC | -0.0876 |
| CCTGAGGA | -0.0103 |
| CAAGTGGA | -0.0357 |
| AGTTTTTA | 0.142 |
| AGGAAGCA | -0.0194 |
| AGATTCAT | -0.106 |
| CAGTCGCC | -0.0794 |
| TGAACCCA | -0.0458 |
| GAAACTTA | 0.26 |
| CGTAGAAA | -0.0538 |
| CTTGGACA | -0.127 |

| Sequence | PBM E-score |
| --- | --- |
| AGCCCTAT | -0.115 |
| CTTACACC | 0.016 |
| AAAAACAT | 0.241 |
| ACCCCTAC | -0.0459 |
| AATAGGTG | 0.0143 |
| ACACCCGC | 0.191 |
| GACCAAAC | 0.11 |
| TAGTCCGA | 0.124 |
| GCTCAGCA | -0.0833 |
| AAGTATTA | 0.102 |
| CCAAATGG | -0.145 |
| CGGTTCGC | -0.0544 |
| AAGGCGTA | -0.167 |
| GTGGTTGA | -0.0806 |
| AGATGGAA | 0.088 |
| AATTTAGT | 0.203 |
| TGCGGCCA | -0.00812 |
| CGAGCAGC | -0.0446 |
| GAGGATCA | 0.0564 |
| GCTTCGAC | -0.0907 |
| ACGTAGGG | -0.298 |
| AGTCAGGG | -0.269 |
